Hit rate of the full screen: of about 48,000 compounds, about 550 (1.1%) were called active. Not shown: some 4% with an inconclusive outcome. Rule as the data show it: active = potency below about 15 µM; inconclusive = mostly about 16 µM to 33 µM; inactive = weaker than that. The list shows a part of the results.
target: Lysosomal acid glucosylceramidase (Homo sapiens) (UniProt P04062); assay: Glucocerebrosidase; details: purified enzyme, resorufin glucoside fluorescence (screen aimed at inhibitors), 20 min; series mostly up to 77 µM;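 also: the screen sought inhibitors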
UniProt P04062, sequence (P04062 whole entry, looked up): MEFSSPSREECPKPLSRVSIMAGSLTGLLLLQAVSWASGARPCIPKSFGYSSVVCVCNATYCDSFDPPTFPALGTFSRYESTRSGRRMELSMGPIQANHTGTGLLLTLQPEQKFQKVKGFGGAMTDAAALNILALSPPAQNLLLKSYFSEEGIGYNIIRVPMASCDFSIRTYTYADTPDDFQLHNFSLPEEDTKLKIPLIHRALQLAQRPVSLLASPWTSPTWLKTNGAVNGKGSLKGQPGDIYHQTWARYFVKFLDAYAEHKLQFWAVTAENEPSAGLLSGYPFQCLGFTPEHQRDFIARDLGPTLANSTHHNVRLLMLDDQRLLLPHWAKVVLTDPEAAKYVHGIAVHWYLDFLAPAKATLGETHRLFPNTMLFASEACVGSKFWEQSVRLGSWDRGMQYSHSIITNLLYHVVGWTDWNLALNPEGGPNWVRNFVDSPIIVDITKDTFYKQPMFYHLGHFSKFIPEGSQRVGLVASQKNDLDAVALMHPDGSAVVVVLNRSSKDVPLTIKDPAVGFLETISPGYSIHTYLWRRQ
Method in brief: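 Normal human glucocerebrosidase (0.2 nM final) was assayed with resorufin β-D-glucopyranoside (30 uM final) in 50mM citric acid/KH2PO4, 10mM sodium taurocholate, 0.01% tween-20, pH 5.9. Compounds were titrated; fluorescence (Ex 548, Em 600) read after 20 min at RT.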
Potency is read from the fitted curve at half-maximal effect.

| Compound | Potency |
| --- | --- |
| Cc1cc2oc(=O)cc(CN3CCN(S(=O)(=O)c4ccc5c(c4)OCCO5)CC3)c2cc1C | inactive: > 76.9 µM |
| c1coc(C2Nc3cccc4cccc(c34)N2)c1 | inactive: > 76.9 µM |
| COc1cc(C(=O)N(Cc2ccccn2)CC2CCCO2)cc(OC)c1OC (stereo not drawn) | inactive: > 76.9 µM |
| NC(=O)C[C@@H]1N[C@]2(C(=O)Nc3ccccc32)[C@@H]2C(=O)N(C3CCCCC3)C(=O)[C@H]12 | inactive: > 76.9 µM |
| CCOc1ccc(Nc2oc(Cc3ccccc3)nc2C#N)cc1 | inactive |
| CCCCc1ccc(NC(=O)c2c(C)noc2C)cc1 | inactive: > 76.9 µM |
| CCOC(=O)Cc1c(C)c2c(C)nn(-c3ccccc3)c2oc1=O | inactive: > 76.9 µM |
| O=C(c1cc2n(n1)C(C(F)(F)F)CC(c1ccco1)N2)N1CCc2ccccc2C1 (stereo not drawn) | inactive: > 76.9 µM |
| Cn1c(=O)n(CC(=O)N2CCOCC2)c2ccccc21 | inactive: > 76.9 µM |
| CCOc1ccc2nc(NS(C)(=O)=O)sc2c1 | inactive: > 76.9 µM |
| CCC1(C)Nc2ccccc2C(=O)N1O (stereo not drawn) | inactive: > 76.9 µM |
| O=S1(=O)N=CN(Cc2cccc(F)c2)c2ccccc21 | inactive: > 76.9 µM |
| CCOc1ccc2nc(SCC(=O)NCc3ccco3)sc2c1 | inactive: > 76.9 µM |
| Cc1cc(NC(=O)COC(=O)C2CCCN2C(=O)c2cccs2)no1 (stereo not drawn) | inactive: > 76.9 µM |
| CC(=O)Nc1ccc(Oc2nc(C)cc(C)n2)cc1 | inactive: > 76.9 µM |
| Cc1ccnc(NC(=O)CCC(=O)N(CC(=O)NCC2CCCO2)Cc2ccc(F)cc2)c1 (stereo not drawn) | inactive: > 76.9 µM |
| COc1ccc(CN2CCN(c3ccccn3)CC2)cc1OCc1ccccc1 | inactive: > 76.9 µM |
| CCCOc1ccccc1Nc1nnc(C)c(=O)[nH]1 | inactive: > 76.9 µM |
| COc1ccc(-c2cc(C(=O)Nc3cc(OC)c(OC)c(OC)c3)no2)cc1OC | inactive: > 76.9 µM |
| Cc1ccc(S(=O)(=O)N2CCCC2C(=O)N(C)Cc2cccs2)cc1 (stereo not drawn) | inactive: > 76.9 µM |
| c1ccc(CNc2nc3ccccc3n2CCN2CCOCC2)nc1 | inactive: > 76.9 µM |
| CCCN1CCC(NC(=O)Nc2ccc(OC)c(OC)c2)CC1 | inactive: > 76.9 µM |
| CCOC(=O)C1CCCN(S(=O)(=O)c2ccc(Br)s2)C1 (stereo not drawn) | inactive: > 76.9 µM |
| CCOCCCNC(=O)c1c(C)[nH]c(C(=O)OCC)c1C | inactive: > 76.9 µM |

| Compound | Potency |
| --- | --- |
| CCN(CC)S(=O)(=O)c1cccc(C(=O)Oc2cccnc2)c1 | inactive: > 76.9 µM |
| CCOC(=O)CCc1nc2ccccc2[nH]c1=O | inactive: > 76.9 µM |
| CCOC(=O)c1sc(C)c(C(=O)NCCCN2CCOCC2)c1N | inactive: > 76.9 µM |
| COC(=O)CCn1nnc(-c2cccs2)n1 | inactive: > 76.9 µM |
| COCCNC(=O)CCCCCN1C(=O)CCC1=O | inactive: > 76.9 µM |
| O=C(c1cnccn1)N1CCc2ccccc21 | inactive: > 76.9 µM |
| COc1cc(N/C(=N/S(=O)(=O)c2ccccc2)c2ccccc2)ncn1 | inactive: > 76.9 µM |
| O=C(c1c(F)cccc1F)N1CCN(c2ccccc2F)CC1 | inactive: > 76.9 µM |
| CC(=O)NC(Cc1ccc(F)cc1)C(=O)O (stereo not drawn) | inactive: > 76.9 µM |
| CCCCC(CC)C(=O)NCc1ccccc1OC (stereo not drawn) | inactive: > 76.9 µM |
| CC(=O)CC(=O)NC(=NC1CCCCC1)Nc1nc(C)cc(C)n1 | inactive |
| CC1CN(Cc2nc3c(c(=O)n(C)c(=O)n3C)n2CC(O)CO)CC(C)O1 (stereo not drawn) | inactive: > 76.9 µM |
| O=C(COC(=O)CNS(=O)(=O)/C=C/c1ccccc1)NC1CCS(=O)(=O)C1 (stereo not drawn) | inactive: > 76.9 µM |
| CCC(C)NC(=O)CCCCCn1c(=O)[nH]c2cc(OC)c(OC)cc2c1=O (stereo not drawn) | inactive: > 76.9 µM |
| CCS(=O)(=O)c1nc2ccccc2n1CC(=O)N1CCCCC1 | inactive: > 76.9 µM |
| Cc1ccc(C)c(N(C)S(=O)(=O)c2cccc3nsnc23)c1 | inactive: > 76.9 µM |
| O=C(CCc1nc(-c2ccccc2)no1)N1CCCC1 | inactive: > 76.9 µM |
| COc1ccc(-c2ncc3ccccn23)cc1 | inactive |
| C=C(C)CSc1nnc([C@H](CCSC)NC(=O)OC(C)(C)C)o1 | inactive: > 76.9 µM |
| CCC1CCCCN1CCCNC(=O)CNC(=O)Cn1ccc2ccccc2c1=O (stereo not drawn) | inactive: > 76.9 µM |
| COC(=O)Cc1c(C)nc2nc(-c3cccnc3)[nH]n2c1=O | inactive: > 76.9 µM |
| CCNC(=O)NC(=O)C(C)OC(=O)c1cccnc1SC (stereo not drawn) | inactive: > 76.9 µM |
| CCCC(c1nnnn1C1CCCCC1)N1CCN(c2ncccn2)CC1 (stereo not drawn) | inactive: > 76.9 µM |
| O=S(=O)(Nc1cccnc1)c1ccc2c(c1)OCCO2 | inactive: > 76.9 µM |

| Compound | Potency |
| --- | --- |
| Cc1cccnc1NC(=O)COc1ccc2oc3c(c2c1)CCCC3 | inactive: > 76.9 µM |
| CCN(Cc1ccncc1)C(=O)c1cccc(S(=O)(=O)N2CCOCC2)c1 | inactive: > 76.9 µM |
| CCCCC(c1nnnn1C1CCCC1)N1CCN(C2CCCCC2)CC1 (stereo not drawn) | inactive: > 76.9 µM |
| O=C(CN1C(=O)C2(OCCCO2)c2ccccc21)NCc1ccccc1 | inactive: > 76.9 µM |
| OCCNc1nc(N2CCN(Cc3ccccc3)CC2)nc2ccccc12 | active: 13.2 µM |
| O=C(COC(=O)CSCC(=O)N1CCCCC1)Nc1ccc(Cl)cc1 | inactive: > 76.9 µM |
| O=C(OCCN1CCCC1)C1(c2ccccc2)CCCC1 | inactive: > 76.9 µM |
| COc1ccc(N(C(C)C(=O)NCc2ccco2)S(C)(=O)=O)cc1 (stereo not drawn) | inactive: > 76.9 µM |
| COC(=O)c1sccc1NC(=O)c1ccc(OC)cc1 | inactive: > 76.9 µM |
| CC1Cc2ccccc2N1C(=O)COC(=O)Cn1nnc(-c2ccccc2)n1 (stereo not drawn) | inactive: > 76.9 µM |
| CCOc1ccccc1NS(=O)(=O)c1ccc(Br)s1 | inactive: > 76.9 µM |
| COc1cc2c(cc1O)C(SC)=NC(C)(C)C2 | inactive: > 76.9 µM |
| COc1cc(C(=O)NCc2ccc(-c3nc4ccccc4o3)cc2)cc(OC)c1OC | inactive: > 76.9 µM |
| COc1ccc(NC(=O)CS(=O)CC(=O)Nc2ccc(OC)c(OC)c2)cc1 (stereo not drawn) | inactive: > 76.9 µM |
| Cc1[nH]nc2c1C(c1ccc(Cl)cc1)C(C#N)=C(N)O2 (stereo not drawn) | inactive: > 76.9 µM |
| Cc1ccc(-c2nnc(SCC(=O)N3CCCC3)o2)cc1 | inactive: > 76.9 µM |
| COc1ccc(CC(=O)Nc2c3c(nn2-c2cccc(Cl)c2)CS(=O)(=O)C3)cc1 | inactive: > 76.9 µM |
| Cn1c(=O)c2c(nc(SCC(=O)Nc3ccc(N4CCOCC4)c(Cl)c3)n2C)n(C)c1=O | inactive: > 76.9 µM |
| O=C(O)CSc1nnc(-c2ccccc2)o1 | inactive: > 76.9 µM |
| Cc1ccc(-c2nn3c(C)nnc3c3ccccc23)cc1S(=O)(=O)N1CCN(CCO)CC1 | inactive: > 76.9 µM |
| Cc1sc(-n2cccc2)c(C(=O)O)c1C | inactive: > 76.9 µM |
| Cc1c(N(C)C(=O)c2ccco2)c(=O)n(-c2ccccc2)n1C | inactive: > 76.9 µM |
| COc1ccc(C)cc1S(=O)(=O)Nc1ccc(F)cc1 | inactive: > 76.9 µM |
| Fc1ccc2c(Cl)c(-c3nnc(-c4cccs4)o3)sc2c1 | inactive: > 76.9 µM |

| Compound | Potency |
| --- | --- |
| Cc1cc(Oc2ccc(Cl)cc2)nc(-c2ccccc2O)n1 | inactive: > 76.9 µM |
| CCOC(=O)C(C)Oc1ccc(C2NC(=O)NC(C)=C2C(C)=O)cc1Br (stereo not drawn) | inactive: > 76.9 µM |
| CC1(c2ccccc2)NC(=O)N(CC(=O)Nc2cccc(C#N)c2)C1=O (stereo not drawn) | inactive: > 76.9 µM |
| COCCn1c(SCC(=O)Nc2cccc(OC)c2)nnc1-c1ccccc1 | inactive: > 76.9 µM |
| O=C1CC(c2ccncc2)c2cc3c(cc2N1)OCO3 (stereo not drawn) | inactive: > 76.9 µM |
| NS(=O)(=O)c1ccc(CNC(=O)NC23CC4CC(CC(C4)C2)C3)cc1 | inactive: > 76.9 µM |
| O=C(O)C1C2C=CC(C2)C1C(=O)NCc1ccoc1 (stereo not drawn) | inactive: > 76.9 µM |
| CCN1CCN(c2ccc(NC(=O)COc3ccccc3Cl)cc2)CC1 | active: 15.2 µM |
| O=C(c1ccco1)N1CCN(Cc2nnnn2CCc2ccccc2)CC1 | inactive: > 76.9 µM |
| CN(Cc1ccccc1)c1nc2c(c(=O)[nH]c(=O)n2C)n1C | inactive: > 76.9 µM |
| CC(C(=O)N1CCc2ccccc21)N1CCc2ccccc2C1 (stereo not drawn) | inactive: > 76.9 µM |
| COc1cccc(NC(=O)N[C@@H](Cc2ccccc2)C(=O)O)c1 | inactive: > 76.9 µM |
| COC(=O)c1[nH]c2cccc(C)c2c1NC(=O)CN1CCCc2ccccc21 | inactive: > 76.9 µM |
| COc1ccc(S(=O)(=O)N2CCCC(C(=O)Nc3ccc(OC)c(OC)c3)C2)cc1 (stereo not drawn) | inactive: > 76.9 µM |
| Cc1cc(C(=O)Nc2ccc(N3CCOCC3)cc2)c2ccccc2n1 | inactive: > 76.9 µM |
| CCOC(=O)N1CCN(C(=O)CSc2nnc(-c3ccccc3OC)o2)CC1 | inactive: > 76.9 µM |
| CCCCNC(=O)c1cc2c(=O)n3cccc(C)c3nc2n(Cc2ccncc2)c1=N | inactive: > 76.9 µM |
| COc1ccc(C2=NO[C@@H]3C(=O)N(c4ccc(C)cc4C)C(=O)[C@H]23)cc1OC | inactive: > 76.9 µM |
| COc1ccccc1NC(=O)N(c1c(N)n(Cc2ccccc2)c(=O)[nH]c1=O)C1CCCC1 | inactive: > 76.9 µM |
| Cc1cc(C)n(-c2c(F)c(F)c(CN3CCOCC3)c(F)c2F)n1 | inactive: > 76.9 µM |
| Cn1c(=O)oc2cc(S(=O)(=O)NCc3ccncc3)ccc21 | inactive: > 76.9 µM |
